According to PubChem BioAssay AID485364 (National Center for Advancing Translational Sciences (NCATS), 2010):
About 11,000 (3.1%) of roughly 360,000 compounds were called active. The shares of active, inactive and inconclusive entries below differ from those in the screen. The call rests on the fitted dose curve; in most records, active means well fitted inhibition curve with a large enough effect; inconclusive means small, poorly fitted or top-dose-only effect; inactive means no such curve, though single readings can be large or run the other way. Potencies of inconclusive entries are left out as doubtful fits.
Further: nearly all actives have a fitted effect of over 60% in size.
On the % scale 0 is the no-effect control and ±100 the full control effect; potency means the concentration at half of the fitted maximal effect; tags describe the fitted curve by direction and shape.

The molecules below were run against Schistosoma mansoni thioredoxin glutathione reductase (TGR) (UniProt Q962Y6) (assay: qHTS Assay for the Inhibitors of Schistosoma Mansoni Peroxiredoxins). Settings: purified TGR, DTNB reduction, TNB absorbance 405 nm; activity change, negative = inhibition: at 114 µM (top of the series) unless noted.
In short: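 TGR 20 nM + NADPH 100 uM (dispensed conc.), cpd preinc 15 min RT; start with NADPH (500 uM addition) then DTNB (15 mM addition). Kinetic TNB absorbance, 405 nm filter. Four-parameter Hill fit across titration.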
In the case of `COc1ccc(C)cc1S(=O)(=O)NCCN1CCOCC1`, the Potency is reported as inconclusive [inhibitor, single point]. `Cc1cc(OC(=O)c2ccc(S(=O)(=O)N3CCCC3)cc2)c([N+](=O)[O-])c(=O)[nH]1` was tested, and the Potency was inconclusive [inhibitor, full curve, poor fit]. With `CS(=O)(=O)N(CC(=O)NCC1CCCO1)c1cc(Cl)cc(Cl)c1` (configuration not stated) the “activity change, negative = inhibition” value was inactive: -10.9%. `O=C1C(Cc2ccccc2)Nc2ncnc(N3CCCCC3)c2N1Cc1ccc(Cl)cc1` (configuration not stated) was tested, and the Potency was inconclusive [inhibitor, partial curve]. In the case of `Cc1nc(CS(=O)(=O)c2ccccc2)cc(Sc2ccccc2Cl)n1`, the “activity change, negative = inhibition” value is reported as inactive: -0.35%. `COc1cc(/C=N\Nc2nncn2N)ccc1OC(C)=O` was tested, and the Potency was inconclusive [inhibitor, full curve, poor fit]. In the case of `CCOC(=O)c1nnc2c(-c3ccc(OC)cc3)c(C)nn2c1N`, the Potency is reported as inconclusive [inhibitor, single point]. For `CCc1ccccc1NC(=O)CCN1C(=O)C2C3CCC(C3)C2C1=O` (configuration not stated), the “activity change, negative = inhibition” value was inactive: -2.28%. In the case of `CS(=O)(=O)/C(C#N)=C\c1cnc(S(=O)(=O)c2ccccc2)s1`, the Potency is reported as inconclusive [inhibitor, partial curve, poor fit]. With `CC(/C=C/c1ccco1)=N\NC(=O)COc1ccc(C)c(C)c1` the Potency was active: 7.08 µM. With `CCOC(=O)N1CCN(S(=O)(=O)N2CCCC(C(=O)NCc3cccc(OC)c3)C2)CC1` (configuration not stated) the Potency was “inactive”. In the case of `Cc1ccc(C(C(=O)NC(C)(C)C)N(CC2CCCO2)C(=O)Cn2nnc(-c3ccc(C)o3)n2)cc1` (configuration not stated), the Potency is reported as inconclusive [inhibitor, single point]. With `CCC1CN(C(=O)N2CCC(C(=O)NCc3ccc(C)o3)CC2)c2cc(C)ccc2O1` (configuration not stated) the Potency was inconclusive [inhibitor, partial curve]. In the case of `O=c1[nH]c(=O)n(Cc2ccc(F)cc2)c(O)c1C=Nc1ccc(Cl)cc1`, the Potency is reported as inconclusive [inhibitor, partial curve]. For `O=C(c1cccs1)N1CCN(Cc2cccnc2)CC1`, the Potency was inconclusive [inhibitor, partial curve]. With `O=C(NCC(c1cccs1)S(=O)(=O)c1cccs1)c1ccccc1` (configuration not stated) the Potency was inconclusive [inhibitor, partial curve]. `COCCCNCCOCCOc1c(OC)cccc1OC` was tested, and the Potency was inconclusive [inhibitor, partial curve]. `O=C(COc1ccc(Cl)cc1)NCCCNC(=O)c1cnccn1` was tested, and the Potency was inconclusive [inhibitor, partial curve, poor fit]. In the case of `C#CCNC(=O)C1=C[C@H](c2ccc3c(c2)OCO3)C[C@H](OCc2ccc(CO)cc2)O1`, the Potency is reported as inconclusive [inhibitor, partial curve]. In the case of `Cc1nn(C)c(C)c1CN(C)C(=O)c1cc2nc(-c3ccco3)cc(C(F)(F)F)n2n1`, the Potency is reported as active: 12.6 µM. In the case of `O=C(COC(=O)C1CCC1)Nc1cc(S(=O)(=O)N2CCCCC2)ccc1Cl`, the Potency is reported as inconclusive [inhibitor, partial curve]. For `CC(=O)c1cccc(NC(=O)CCS(=O)(=O)c2cc(Br)cc3c2N(C(=O)C2CC2)CC3)c1`, the Potency was inconclusive [inhibitor, partial curve]. In the case of `COc1ccc(C2NC(Cc3ccccc3)(C(=O)O)C3C(=O)N(c4ccccc4OC)C(=O)C23)cc1` (configuration not stated), the Potency is reported as active: 22.4 µM. For `CC(C)(C)NC(=O)c1ccc(COc2ccc(Cl)cc2Cl)o1`, the Potency was inconclusive [inhibitor, single point]. For `N#Cc1c(Cl)nc(-c2cccnc2)nc1-c1ccccc1`, the Potency was inconclusive [inhibitor, partial curve, poor fit]. `O=C(Cc1cccs1)NCc1ccccc1` was tested, and the “activity change, negative = inhibition” value was inactive: 2.85%. In the case of `c1cncc(CNc2ncnc3ccc(-c4ccco4)cc23)c1`, the Potency is reported as active: 8.91 µM. In the case of `CC(O)/C=C/c1cccc[n+]1C` (configuration not stated), the Potency is reported as inconclusive [inhibitor, partial curve]. With `O=C1CCCC(O)=C1N=Nc1ccc2c(c1)OCO2` the “activity change, negative = inhibition” value was inactive: -0.746%. `NC(=O)c1ccc(NC(=O)CCC(=O)c2cccs2)cc1` was tested, and the Potency was inconclusive [inhibitor, full curve, poor fit]. `CCOC(=O)C1=C(CN2CCN(c3ccccc3)CC2)NC(=O)NC1c1ccc(C)cc1` (configuration not stated) was tested, and the Potency was inconclusive [inhibitor, partial curve]. With `O=C(/C=C/c1cn(CC(O)CN2CCCCCC2)c2ccccc12)c1ccccc1` (configuration not stated) the Potency was inconclusive [inhibitor, partial curve]. `COc1cc(/C=C/c2nc(C#N)c(NC3CCCCC3)o2)cc(OC)c1OC` was tested, and the “activity change, negative = inhibition” value was inactive: -18.4%. `Cn1cc(CN2CCC(n3nccc3NC(=O)C3CCCC3)CC2)cn1` was tested, and the Potency was inconclusive [inhibitor, single point]. For `COc1ccccc1N1C(=O)CC(Nc2ccc(N3CCOCC3)cc2)C1=O` (configuration not stated), the Potency was active: 20 µM. `CC(C)Oc1ccc(C2c3c(oc4ccccc4c3=O)C(=O)N2CCCN2CCOCC2)cc1` (configuration not stated) was tested, and the Potency was active: 39.8 µM. For `CN(C)Cc1ccc(O)c(CCc2ccccc2)n1`, the Potency was inconclusive [inhibitor, partial curve]. `Cc1cc(Br)ccc1NC(=O)c1cc2c(s1)-c1ccccc1SC2` was tested, and the “activity change, negative = inhibition” value was inactive: 0.718%. For `Cc1ccc(C(=O)CCC(=O)NCc2ccc(Cl)cc2)cc1`, the Potency was inconclusive [inhibitor, partial curve]. For `Cc1[nH]nc(N=CC2=C(O)CC(c3ccco3)CC2=O)c1-c1ccccc1` (configuration not stated), the Potency was inconclusive [inhibitor, partial curve]. `COc1ccc(C(=O)N/N=C\c2coc3ccccc3c2=O)cc1` was tested, and the Potency was inconclusive [inhibitor, partial curve]. With `COc1ccccc1-c1nc(C#N)c(N2CC(C)CC(C)C2)o1` (configuration not stated) the Potency was active: 1.12 µM. For `CC(C)(C)c1ccc(C2Sc3ccccc3NC3=C2C(=O)c2ccccc23)cc1` (configuration not stated), the “activity change, negative = inhibition” value was inactive: -3.27%. For `CCCCNC(=O)Cn1c(=O)c2c(ncn2CCC(C)C)n(Cc2ccccc2)c1=O`, the “activity change, negative = inhibition” value was inactive: 43.4%. With `COc1ccccc1NC(=O)CSCC(N)=O` the “activity change, negative = inhibition” value was inactive: 9.46%. With `COCCCNC(=S)Nc1ccccc1[N+](=O)[O-]` the Potency was inconclusive [inhibitor, partial curve]. In the case of `O=C(NC(=S)Nc1nc2ccccc2s1)c1cccs1`, the Potency is reported as inconclusive [inhibitor, single point]. For `Fc1ccc(Nc2ccnc(Nc3ccc(F)cc3)n2)cc1`, the “activity change, negative = inhibition” value was inactive: 2.93%. `COC(=O)C1(C)NC(c2ccc(F)cc2)C2C(=O)N(c3ccc(C)cc3)C(=O)C21` (configuration not stated) was tested, and the Potency was inconclusive [inhibitor, partial curve, poor fit]. `Cc1ccc(SCC2=NN(c3nc(C)cc(C)n3)C(=O)C2)cc1` was tested, and the Potency was inconclusive [inhibitor, single point]. In the case of `Cn1nnnc1SCC(=O)c1cccs1`, the Potency is reported as active: 39.8 µM. `COc1cccc(C(=O)Nc2ccc(NC(=O)c3ccco3)nc2)c1` was tested, and the “activity change, negative = inhibition” value was inactive: 0%. In the case of `COc1ccc(CNC(=O)/C=C/c2ccco2)cc1OC`, the Potency is reported as active: 3.16 µM. `Cc1sc2nc(CSCC(=O)NC3CCCCC3)[nH]c(=O)c2c1C` was tested, and the Potency was inconclusive [inhibitor, partial curve]. With `O=C(CCOc1ccccc1)Nc1ccnn1C1CCN(C(=O)CCC(F)(F)F)CC1` the “activity change, negative = inhibition” value was inactive: -8.81%. In the case of `Cc1ccc(C(=O)CSc2nc(C)cc(=O)[nH]2)cc1`, the “activity change, negative = inhibition” value is reported as inactive: 0.535%. For `O=c1[nH]c(=S)[nH]c(O)c1N=Nc1cc2c(cc1[N+](=O)[O-])OCO2`, the Potency was inconclusive [inhibitor, single point]. In the case of `Cc1cccc(N2CCN(C(=O)C3CCC(CNS(=O)(=O)c4ccc(Br)s4)CC3)CC2)c1C` (configuration not stated), the “activity change, negative = inhibition” value is reported as inactive: 0.0803%. For `N#CC(C#N)=Cc1cn(-c2ncc(C(F)(F)F)cc2Cl)c2ccccc12`, the Potency was active: 7.08 µM. `Cc1ccc2nc(Cl)c(/C=C/C(=O)c3ccco3)cc2c1` was tested, and the Potency was inconclusive [inhibitor, partial curve]. In the case of `COc1ccc(N2C(=O)CC(Sc3ncccc3C(=O)O)C2=O)cc1` (configuration not stated), the Potency is reported as inconclusive [inhibitor, full curve]. With `O=C(C1CC1)N1CCc2cc(Br)cc(S(=O)(=O)NCCCN3CCCCC3)c21` the “activity change, negative = inhibition” value was inactive: -5.11%. In the case of `O=C(NCCCO)/C(=C\c1ccco1)NC(=O)c1ccc(Br)o1`, the Potency is reported as inconclusive [inhibitor, partial curve]. In the case of `COc1ccccc1N1CCN(C2CC(=O)N(c3ccccc3)C2=O)CC1` (configuration not stated), the Potency is reported as inconclusive [inhibitor, partial curve]. In the case of `Cc1ccc(N=C2NC(=O)/C(=C/C=C/c3ccco3)S2)cc1`, the Potency is reported as active: 44.7 µM. In the case of `Cc1cccc(C)c1OCC(O)CN1CCC(CN2C(=O)c3cccc4cccc(c34)C2=O)CC1` (configuration not stated), the Potency is reported as inconclusive [inhibitor, single point]. `Cc1cc(NC(=O)COc2ccc3ccccc3c2)no1` was tested, and the “activity change, negative = inhibition” value was inactive: -1.64%. `Nc1ncc(Br)cc1N=Cc1ccccc1` was tested, and the Potency was inconclusive [inhibitor, single point]. In the case of `COCC(C)NC(=O)CSc1ncnc2sc(-c3ccccc3)cc12` (configuration not stated), the Potency is reported as inconclusive [inhibitor, full curve, poor fit]. In the case of `CC(C)(C)CC(C)(C)c1ccc(O)c(CN2CCN(CCC#N)CC2)c1`, the “activity change, negative = inhibition” value is reported as inactive: 1.01%. For `N#Cc1c(NC(=O)CSc2nc3ccccc3c(=O)n2Cc2ccco2)sc2c1CCCC2`, the Potency was inconclusive [inhibitor, partial curve]. For `O=[N+]([O-])c1ccc(-n2cnc3ccccc32)c([N+](=O)[O-])c1`, the Potency was inconclusive [inhibitor, full curve].
